Measurements taken from article PMC4336329 (PLoS ONE, 2015).
Hit rate of the full screen: of about 310,000 compounds, about 2,200 (0.71%) showed an effect of 50% or more. Effects have a minus sign here. The list shows a part of the results.

The molecules below were run against human ether-à-go-go-related gene (hERG) potassium channel (human, UniProt Q12809) (assay: primary screen, population patch clamp on CHO cells stably expressing hERG).
Chain of human ether-à-go-go-related gene (hERG) potassium channel (Q12809 whole entry, looked up): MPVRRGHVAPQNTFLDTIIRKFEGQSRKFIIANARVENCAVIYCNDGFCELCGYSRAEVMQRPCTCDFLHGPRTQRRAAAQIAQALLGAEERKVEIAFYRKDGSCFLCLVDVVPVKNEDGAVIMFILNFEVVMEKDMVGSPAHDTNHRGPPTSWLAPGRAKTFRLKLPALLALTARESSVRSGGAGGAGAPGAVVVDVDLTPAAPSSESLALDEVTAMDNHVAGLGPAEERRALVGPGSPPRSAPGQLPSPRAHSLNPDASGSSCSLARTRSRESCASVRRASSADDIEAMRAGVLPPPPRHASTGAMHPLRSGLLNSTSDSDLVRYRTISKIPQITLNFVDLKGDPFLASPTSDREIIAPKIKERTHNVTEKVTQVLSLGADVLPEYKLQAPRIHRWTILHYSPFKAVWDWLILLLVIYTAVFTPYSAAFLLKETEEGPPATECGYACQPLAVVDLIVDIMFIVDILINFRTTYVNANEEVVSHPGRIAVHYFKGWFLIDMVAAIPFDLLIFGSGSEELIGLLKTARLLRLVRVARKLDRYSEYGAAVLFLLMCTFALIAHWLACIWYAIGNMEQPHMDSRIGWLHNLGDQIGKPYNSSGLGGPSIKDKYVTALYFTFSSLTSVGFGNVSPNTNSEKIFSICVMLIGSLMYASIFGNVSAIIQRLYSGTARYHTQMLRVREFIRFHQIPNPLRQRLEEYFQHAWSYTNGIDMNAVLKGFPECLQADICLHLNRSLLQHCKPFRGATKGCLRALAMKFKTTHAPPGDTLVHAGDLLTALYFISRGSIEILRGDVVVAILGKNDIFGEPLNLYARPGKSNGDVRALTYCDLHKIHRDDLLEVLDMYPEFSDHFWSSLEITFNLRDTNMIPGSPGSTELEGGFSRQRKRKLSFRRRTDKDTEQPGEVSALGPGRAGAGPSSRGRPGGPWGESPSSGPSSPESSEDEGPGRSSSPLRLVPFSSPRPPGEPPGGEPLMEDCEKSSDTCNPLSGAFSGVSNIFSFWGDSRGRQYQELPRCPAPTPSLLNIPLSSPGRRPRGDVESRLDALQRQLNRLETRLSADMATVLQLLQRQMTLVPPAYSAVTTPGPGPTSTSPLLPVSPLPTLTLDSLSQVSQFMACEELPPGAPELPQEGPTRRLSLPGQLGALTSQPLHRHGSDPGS

Row | SMILES | hERG current change (%, negative = inhibition) at 1uM
1 | COc1ccc(OC)c(NC(=O)CSc2nnc(Cc3cccn3C)n2-c2ccc(F)cc2)c1 | -0.0502%
2 | O=[N+]([O-])c1ccc(Cl)c(-c2ccc(/C=N/c3c(-c4ccco4)nc4ccccn34)o2)c1 | 2.54%
3 | Cc1ccc(CNC(=O)Cn2cnc(S(=O)(=O)N3CCCCC3)c2)o1 | -0.534%
4 | O=C(C1=C(O)C(=O)N(CCCN2CCOCC2)C1c1ccc(Cl)cc1)c1cc2ccccc2o1 (centres unmarked) | 15.8%
5 | CCOC(=O)C1CCN(Cc2cnc(Oc3ccc(Cl)cc3C)s2)CC1 | -3.38%
6 | CCC(=O)NCCn1ccc2ccccc21 | 9.26%
7 | COc1cc(/C=C/C(=O)Nc2ccccc2C(F)(F)F)cc(OC)c1OC | 6.01%
8 | C/C(Cl)=C/Cn1c(N2CCCC2)nc2c1c(=O)[nH]c(=O)n2C | -3.41%
9 | CCOC(=O)CC(NS(=O)(=O)c1ccc(OC)c(C)c1)c1cccc([N+](=O)[O-])c1 (centres unmarked) | 9.68%
10 | CCOC(=O)c1ccc(N(C(=O)c2ccco2)C(C(=O)NC2CCCCC2)c2ccncc2)cc1 (centres unmarked) | 6.81%
11 | Cc1c(C(C)C)c(=O)n(-c2ccc(S(=O)(=O)NC(C)C)cc2)n1C | 12.5%
12 | CCOc1ccc(C(=O)NC2CCCCCCC2)cc1 | 10.6%
13 | O=C1C(=O)N(CCN2CCOCC2)C(c2ccc([N+](=O)[O-])cc2)/C1=C(/O)c1ccc2c(c1)OCO2 (centres unmarked) | 14.5%
14 | CC(C#N)(NC(=O)CN1CCN(S(=O)(=O)c2ccccc2C#N)CC1)C1CC1 (centres unmarked) | 8.82%
15 | O=C(COC(=O)c1ncc(Cl)c(Cl)c1Cl)NCc1ccccc1 | 8.74%
16 | O=C(Nc1ccc(F)cc1)C(c1ccccc1)N1CCN(S(=O)(=O)c2ccccc2)CC1 (centres unmarked) | 4.88%
17 | COC(=O)c1ccc(/C=N/NC(=O)CC(=O)NCc2cccnc2)cc1 | 6.92%
18 | Cc1ccc(CN(C)C(=O)C2CCCN2C(=O)c2cccs2)o1 (centres unmarked) | 5.28%
19 | Cl.N/N=c1\sc2ccccc2n1-c1ccccc1 | 9.97%
20 | C=CCOC(=O)C1=C(C)N(C)C(=O)NC1c1cc2c(cc1Br)OCO2 (centres unmarked) | 9.5%
21 | COc1ccc(-c2cc(N)n(S(=O)(=O)c3c(F)c(F)c(F)c(F)c3F)n2)cc1OC | -6.97%
22 | O=C(Nc1nnc(SCc2ccccn2)s1)C1CC(=O)N(c2ccc(F)cc2)C1 (centres unmarked) | 11.2%

Row | SMILES | hERG current change (%, negative = inhibition) at 1uM
23 | COc1ccc(Nc2nc(N)nc(CN3CCc4ccccc4C3)n2)cc1 | -23.3%
24 | Cc1ccc(C)c(NC(=O)C2CCCN(S(=O)(=O)c3c(C)noc3/C=C/N(C)C)C2)c1 (centres unmarked) | 9.51%
25 | COc1ccc(OCC(=O)N2CCC3(CC2)CC(=O)c2ccccc2O3)cc1 | -70.2%
26 | Cc1ccc(N(CC(=O)NCCc2ccc(Cl)cc2)S(=O)(=O)c2c(C)noc2C)cc1 | 12.9%
27 | CCCS(=O)c1nc(C)cc(C)c1S(C)(=O)=O (centres unmarked) | 4.95%
28 | CCCCC(=O)N(Cc1ccc2c(c1)OCO2)Cc1nc2ccccc2c(=O)[nH]1 | 13.1%
29 | CN1CCN(c2ccc(NS(=O)(=O)c3ccc(Cl)cc3)cn2)CC1 | -4.7%
30 | COCCN(C(=S)Nc1cccc(C)c1)C(C)c1cccs1 (centres unmarked) | 13.3%
31 | S=c1[nH]nc(-c2cnccn2)n1-c1ccccc1 | 7.76%
32 | COc1ccc(Cl)cc1NC(=O)CCc1nnc2ccc(N3CCC4(CC3)OCCO4)nn12 | 6.73%
33 | O=C(C1=C[C@H](C2CCCCC2)C[C@H](OCc2ccc(CO)cc2)O1)N1CCN(Cc2ccc3c(c2)OCO3)CC1 | 4.68%
34 | O=C(NCCCn1ccnc1)/C(=C\c1cccs1)NC(=O)c1cccs1 | -27.6%
35 | CCCCN(C(=O)CC1CCCCC1)c1c(N)n(CC(C)C)c(=O)[nH]c1=O | 1.82%
36 | C=CCn1c(-c2cc3c(s2)CCC(CC)C3)n[nH]c1=S (centres unmarked) | 4.9%
37 | O=S(=O)(c1ccccc1)c1ccc(C(F)(F)F)cn1 | 14.9%
38 | CCOc1ccc(NC(=O)CCNS(=O)(=O)c2ccc3c(c2)oc(=O)n3C)cc1 | 13.5%
39 | Cc1nc2cc(NC(=O)Nc3ccc(Br)cc3)ccc2o1 | 8.23%
40 | CCSc1nc(C)nc2c1oc1ccccc12 | 12%
41 | CN(Cc1ccccc1NC(=O)c1ccc(S(=O)(=O)N(C)C)cc1)C1CCCCC1 | 24.7%
42 | Cc1ccc2[nH]cc(S(=O)(=O)c3ccc(C(C)C)cc3)c(=O)c2c1 | 13%
43 | COc1ccccc1N(CC(=O)NCCSc1ccccc1)S(=O)(=O)c1ccccc1 | 4.58%
44 | NS(=O)(=O)c1cnccc1Nc1ccc(Cl)cc1 | 7.8%

Row | SMILES | hERG current change (%, negative = inhibition) at 1uM
45 | CCOC(=O)c1ccccc1N1C(=O)CSC1=S | 11.9%
46 | CN(NC1OC(=O)c2ccccc21)c1ccc(Cl)cc1[N+](=O)[O-] (centres unmarked) | 10.6%
47 | Cc1ccccc1Oc1nc2c(C)cccn2c(=O)c1/C=C(\C#N)C(=O)Nc1c(C)n(C)n(-c2ccccc2)c1=O | 9.52%
48 | O=C(/C=C/c1cccc([N+](=O)[O-])c1)N1CCOCC1 | -3.15%
49 | Br.COc1ccc(C2=CSC3=NCCN23)cc1OC | 7.66%
50 | COCCN(C(=O)CSc1nnc(-c2ccccc2C)n1C)c1c(N)n(Cc2ccccc2)c(=O)[nH]c1=O | 21.7%
51 | Cc1ccc2c(c1)cc1c(=O)n(CC(=O)NCCN3CCCC3)nc(C)n12 | 12.5%
52 | Cc1c(-c2ccc(F)cc2)[n+](=O)c(-c2ccc(F)cc2)c(C)n1[O-] | 10.2%
53 | Cc1csc(NC(=O)c2cc3c(C)nn(Cc4ccccc4Cl)c3s2)n1 | 8.47%
54 | O=C(CSc1nc2ncccc2[nH]1)c1cccc([N+](=O)[O-])c1 | 8.27%
55 | OC(C[n+]1ccccc1)c1ccccc1.[Br-] (centres unmarked) | 18.6%
56 | Cc1cc(-c2n[nH]c(=S)o2)c(C)n1-c1ccccc1 | -0.769%
57 | COC(=O)[C@@H]1C[C@@]1(C)[C@@H](NP(=O)(c1ccccc1)c1ccccc1)c1ccccc1 | 13.6%
58 | CN(C)c1ccnc(-n2cccc2/C=N/O)c1C#N | 5.37%
59 | CCOC(=O)C(=O)NC12CC3CC(CC(C3)C1)C2 | 28.7%
60 | CC(=O)Nc1ccc(NC(=O)COC(=O)c2cnccn2)cc1 | 18.7%
61 | COc1ccc(CN2CCCC(C(=O)c3ccc(Cl)cc3)C2)c(O)c1 (centres unmarked) | -21.3%
62 | Cc1cc(N)ccc1S(C)(=O)=O | 8.89%
63 | Brc1ccc(-c2cn3nc4c(nc3n2)CCCC4)cc1 | -4.68%
64 | COC(=O)c1ccc(CNC(=O)C2CCC(=O)N(CCCc3ccccc3)C2)cc1 (centres unmarked) | 6.59%
65 | COc1ccc(S(=O)(=O)N2CCCCCC2)cc1NC(=O)c1ccccc1F | 12%
66 | O=C(NCc1ccc2c(c1)OCO2)c1ccc(-n2cnnn2)cc1 | -7.33%

Row | SMILES | hERG current change (%, negative = inhibition) at 1uM
67 | Cc1cc2cc(CN(CC3CCCO3)C(=S)Nc3ccccc3)c(=O)[nH]c2cc1C (centres unmarked) | -5.73%
68 | CCCc1cc(C(=O)Nc2c(C)n(C)n(-c3ccccc3)c2=O)no1 | 6.05%
69 | Cc1nc2ccccc2n1CCOc1ccccc1 | 11%
70 | COc1ccccc1NC(=O)Cc1csc(NC(=S)Nc2ccccc2)n1 | 10%
71 | CC1CCN(C(=O)C(C)Sc2nc(-c3ccccc3)cc(C(F)(F)F)n2)CC1 (centres unmarked) | 3.09%
72 | CN1CCC(NC(=O)Nc2cccc(C(F)(F)F)c2)CC1 | 10.7%
73 | CCOP1(=O)C=C(C(C)(C)C)OC1c1ccc(F)cc1 (centres unmarked) | 5.43%
74 | COc1ccc(CC(=O)OC(C)C(=O)c2ccc(C)cc2)cc1 (centres unmarked) | 17%
75 | N#CC1=C(N)C2=CCCC[C@H]2[C@H](c2ccccc2)C1(C#N)C#N | 8.49%
76 | COc1cc(C(=O)NCc2nnc(SCC(=O)Nc3cc(C)cc(C)c3)o2)cc(OC)c1OC | 13%
77 | CCCCCCNC(=O)N[C@H](C(=O)NCCC[C@H]1CN2C(=NC[C@H]2C)N1CCC(c1ccccc1)c1ccccc1)C(C)O (some centres unmarked) | 11.1%
78 | O=C(Oc1ccc(Br)cc1C(=S)N1CCOCC1)c1ccc(F)cc1 | 13.9%
79 | O=C(CCCC1=NS(=O)(=O)c2ccccc2N1)N1CCN(c2ccccc2)CC1 | 8.63%
80 | CCOC(=O)c1cnc(-n2nc(C)cc2C)nc1NCCO | 12.9%
81 | CCOc1cc(S(=O)(=O)NCCCN2CCOCC2)ccc1F | 8.13%
82 | O=C(Nc1c(C(=O)N2CCCCC2)cnn1-c1ccccc1)c1ccccc1 | 11.6%
83 | CC1CCCCN1CCCNC(=O)Cn1ncc2c([nH]c3ccccc32)c1=O (centres unmarked) | 25.8%
84 | CCOC(=O)CN1CC23C=CC(O2)C(C(=O)Nc2ccc4c(c2)OCO4)C3C1=O (centres unmarked) | 12.5%
85 | CCOc1ccc(NCc2cccn2-c2nnc(N3CCC(C(=O)NCCCN4C(C)CCCC4C)CC3)s2)cc1 (centres unmarked) | -5.16%
86 | CNC(=O)c1cc(-c2ccc(Cl)cc2)n(-c2ccccc2)n1 | 13.8%
